According to PubChem BioAssay (NCI):
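Five compound concentrations were applied to cells in 96-well plates for 48 hours; endpoints were derived by simple linear interpolation of the resulting dose-response curve. GI50: concentration for 50% inhibition of growth. Definition used: TGI = concentration required for complete inhibition of growth.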

The molecules below were run on NCI-H322M lung (assay: inhibition of tumour cell growth, NCI panel, 48 h).

Structure (SMILES) | GI50 | TGI
CN1CCN(Cc2ccc(NC(=O)c3cncc(C#Cc4cnc5ccc(OCC6(C)COC6)nn45)c3)cc2C(F)(F)F)CC1 | 170 nM | 498 nM
CNC1CCc2c(sc(NC(=O)c3ccc(C(C)(C)C)cc3)c2C(N)=O)C1 (stereo unspecified) | 2130 nM | 5060 nM
CCNC(=O)N1CCc2cc(OC)c(OCCc3ccc(OC)nc3)cc2C1c1ccc(C)cc1C (stereo unspecified) | 1960 nM | > 100000 nM
